# Experimental data published in PubChem BioAssay (NCI).
# Several values for one entry are separate records, joined by “and”; a condition that tells them apart may be missing. Equal values may be shown once.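 Compound exposure: 48 hours, 5 concentrations, 96-well plates. The concentration for 50% growth inhibition is given as GI50. TGI denotes the concentration required for complete inhibition of growth.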 Square brackets hold non-standard residues; d marks the D form. Peptide text beside a SMILES is read from it. * marks the point of attachment. Hyp = O=C(O)[CH]1C[CH](O)CN1; Cbz = O=C(OCc1ccccc1)*
# Test system: NCI-H322M lung
# Test: NCI anticancer screen, dose series, 48 h
SMILES,TGI,GI50 [µM]
CCOC(=O)/C=C/C1=C(Br)[C@@]2(C)CC[C@@H]3c4ccc(O)cc4CC[C@H]3[C@@H]2C1,28.9 µM,–
CCC1=NC(N/N=C/c2ccco2)=N/C1=C\c1ccco1,> 100 µM,–
CNC(=O)OCC1=C(COC(=O)NC)CN(c2ccc(OC)cc2)C1,> 100 µM,–
CS(=O)(=O)Nc1cccc(-c2ccc3ncnc(Nc4cncc(Cl)c4)c3c2)c1,10.4 µM,0.36
CN(CCc1ccccn1)c1ccc2c(c1)Cc1ccccc1-2,> 100 µM,–
COC(=O)[C@]12CC[C@@H](C)[C@H](C)[C@@H]1C1=CC[C@@H]3[C@@]4(C)C(C=O)=C[C@@](C)(COC(=O)c5ccco5)C4=CC[C@@]3(C)[C@]1(C)CC2,53.4 µM,5.15
O=C1c2ccccc2C(=O)c2c1sc1nc3ccccc3n21,3.33 µM,–
CNc1cc(Cl)ccc1C(=O)N1CCC[C@H]1CO,> 100 µM,–
CCOC(=O)c1cccc(N=Nc2ncc(/C=C/C(=O)OC)[nH]2)c1,89.5 µM,–
CN(CCN1C(=O)c2cccc3cccc(c23)C1=O)CCN1C(=O)c2cccc3cccc(c23)C1=O,85.1 µM,–
CCOC(=O)CCCOc1cc(-c2ccccc2F)nc2cc3c(cc12)OCO3,> 100 µM,–
Cc1cc(=O)[nH]c(S(=O)(=O)NC(=O)Nc2cccc(Cl)c2)n1,> 100 µM,–
Cc1ccc([N+](=O)[O-])cc1S(=O)(=O)Nc1ccc(C2=NN(C(=O)c3ccccc3)C(c3ccccc3O)C2)cc1 (configuration not stated),> 100 µM,–
N#Cc1cc2c(=S)[nH]c(=S)[nH]c2nc1SCc1ccccc1,> 100 µM,46.5
COc1ccc(/C=N/C2=NNC(C)(c3ccccc3O)N2C(Cc2c[nH]c3ccccc23)C(=O)O)cc1 (configuration not stated),15.6 µM,3.33
CCCCCCCCCc1cc(=O)c2c(O)cc(O)cc2o1,38 µM,–
NC(N)=N/N=C/c1c(-c2cccs2)nc2n1CCS2,42.8 µM,17.5
CC(=O)OC1OC(C2c3cccc(O)c3C(=O)c3c(O)cc(CO)cc32)C(O)C(O)C1O (configuration not stated),43.2 µM and 37 µM,–
O=C(c1ccccc1)N1CCC(Nc2cccnc2)O1 (configuration not stated),> 100 µM,–
C/C(=N\NC(N)=S)C(CN1CCCCC1)C(C1=C(O)c2ccccc2OC1)c1ccccc1 (configuration not stated),> 100 µM,–
O=C(NN1CCCCC1)c1cc2cc(CCl)ccc2oc1=O,32.2 µM,–
COc1ccc(C2C(C(=O)O)=C(CO)Oc3cc4c(cc32)OCO4)c(OC)c1 (configuration not stated),> 100 µM,–
OC1CCSc2ccccc21 (configuration not stated),> 100 µM,–
CC1=C(c2ccccc2)CON(c2ccccc2)C1,> 100 µM,–

SMILES,TGI,GI50 [µM]
O=C1c2ccccc2-c2c1c1ccc([N+](=O)[O-])cc1c(=O)n2CCN1CCOCC1,> 100 µM,> 100
C[C@@H]1C[C@@H]2C(=O)N(c3ccccc3)C(=O)[C@@H]2c2[nH]c3ccc(Br)cc3c21,> 100 µM,–
O=C(/C=C/c1ccco1)N1CCN(Cc2ccccc2)CC1,> 100 µM,–
O=C(/C=C/c1ccc(O)c(O)c1)O[C@H]1CCCC[C@@H]1OC(=O)/C=C/c1ccc(O)c(O)c1,43.1 µM,–
CC(NC(=O)c1ccc(OP(=O)(OCc2ccc([N+](=O)[O-])o2)N(C)CCCCCl)cc1)c1ccc(OCC2CCCCC2)c(C(N)=O)c1 (configuration not stated),> 67.2 µM,–
CCN(CC)CCOc1ccccc1-n1c(C)ccc1-c1ccccc1,32 µM,17.3
N#Cc1n[nH]n(-c2ccccc2)c1=O,> 100 µM,–
COc1ccccc1N1CCN(CC(O)Cn2c(=O)c3c(OC)nc(C)cc3c(=O)n2-c2ccccc2)CC1 (configuration not stated),> 100 µM,> 100
Nc1nc(Cl)cc(NCC2(CO)CC=CC2)n1,> 100 µM,–
Fc1c(F)c(F)c(CSc2nc3ccccc3[nH]2)c(F)c1F,> 100 µM,–
O=C(O)C(C(F)(F)F)C(F)(F)F (tested in a mixture with another compound),> 100 µM,–
COc1ccc2cn3c4ccc(O)cc4[nH]c(=O)c3c2c1,19.1 µM,0.926
O=C(c1nc2ccc(Cl)cc2[nH]c1=O)C(O)c1ccco1 (configuration not stated),> 100 µM,–
COc1cc(S(=O)(=O)Nc2ccc(-c3csc(/N=C\c4cccc(Oc5ccccc5)c4)n3)cc2)ccc1Cl,> 100 µM,–
O=C1Nc2cc(-c3ccc(O)cc3)ccc2/C1=C/c1ccc[nH]1,3.73 µM,0.246
O=C(O)c1ccc2[nH]c(=O)oc2c1,> 100 µM,–
Cc1cccc(/C=N/N=C(\N)NO)n1,> 100 µM,–
CN1CCN(c2ccc(NC(=O)c3cncnc3Nc3ccc4c(ccn4Cc4cccc(F)c4)c3)cc2)CC1,8.26 µM,4.11
O=C1CCCc2cc3c(cc21)CC1(C3)Cc2cc3c(cc2C1)C(=O)CCC3,> 46.4 µM,–
CC/C(=N/O)C(C)C(=O)CCC(=O)Nc1ccc(Cl)cc1 (configuration not stated),> 100 µM,–
CCC1C[N+]2=C(c3cc(OC)c(OC)cc3CC2)c2c1cc1n2CCc2cc(OC)c(OC)cc2-1 (configuration not stated),75.2 µM,18.3
COc1ccc(-n2nnc3c(C#N)c(C)c(-c4ccccc4)n3c2=O)cc1,> 100 µM,–
Oc1cc(F)cc2cccnc12,> 100 µM,–
COC(=O)C(Cc1ccccc1)NP(=O)(O)OCC1OC(n2ccc(N)nc2=O)C(O)C1O (configuration not stated),> 100 µM,–

SMILES,TGI,GI50 [µM]
C/C=C/C(O)P(=O)(OC)OC (configuration not stated),1.86 µM,–
COC(=O)c1ccc(N/C=C(/C#N)c2ccsc2)cc1,72.1 µM,–
CCOc1ccc2c(c1)[n+]([O-])c(-c1ccc([N+](=O)[O-])cc1)c(N)[n+]2[O-],> 100 µM,–
CC1(C)OC2C(O1)[C@H]1OC(C(Cl)(Cl)Cl)=N[C@H]1C(I)[C@H]2N1C(=O)c2ccccc2C1=O (some centres not stated),> 100 µM,–
NC(=O)CNC(=O)C1CC(O)CN1C(=O)C1CCCN1C(=O)OCc1ccccc1 (stereo not drawn) (Cbz-Pro-[Hyp]-Gly-NH2; configuration not given here),> 100 µM,–
CCN1Cc2c(/C=C/c3ccccc3)nc3ccc(OC)cc3c2N(c2cccc(Cl)c2)C1,5.14 µM,2.12
COC(OC)[C@@H]1OC[C@H](n2ccc(=O)[nH]c2=O)[C@H]1O,> 100 µM,–
O=C(C[n+]1ccn(CC(OCc2ccc(Cl)cc2Cl)c2ccc(Cl)cc2Cl)c1)c1ccc(F)cc1 (configuration not stated),2.7 µM,1.32
CC(C)C1COC(C(C)(C)C2=N[C@@H](C(C)C)CO2)=N1 (some centres not stated),> 100 µM,–
Nc1n[nH]c2cc(F)c([C@@H]3Nc4c(F)cc5[nH]ncc5c4[C@H]4C5CCC(C5)[C@@H]34)cc12 (some centres not stated),31.8 µM,0.267
CC(=S)NC=C(C(N)=O)C(N)=O,> 100 µM,–
CCCC(=O)Nc1cc(/C=C/C(=O)N2CC(CCl)c3c2cc(OC(C)=O)c2[nH]cc(C)c32)n(C)c1 (configuration not stated),0.00171 µM,–
NC1=CC(=O)C(=O)c2ccccc21,> 100 µM,28.9
O=C(Oc1c(Cl)c(Cl)c(Cl)c(Cl)c1Cl)C1CCCN1C(=O)OCc1ccccc1 (configuration not stated),11.9 µM,3.5
CCSc1nc(N)c(C#N)c(-c2ccc(OC)c(OC)c2)c1C#N,> 50 µM,> 50
COc1cc2cc[n+](C)c(Cc3ccc(Oc4cc(Cc5c6cc(OC)c(OC)cc6cc[n+]5C)ccc4OC)cc3)c2cc1OC,> 100 µM,–
COC(=O)CCC(=O)Nc1cc(C)ccc1C,> 100 µM,–
CCOc1cc(CCNC)c2c(ccc3ccc(OC)c(O)c32)c1OC,29.2 µM,–
CC(=O)OCc1ncccc1C(OC(C)=O)OC(C)=O,> 100 µM,–
CC(NNC(=S)N1CCN(c2ccccn2)CC1)c1cccc[n+]1[O-] (configuration not stated),99.7 µM,–
CCC12CN(C(=O)OC)C3C(Br)C1CCC(=O)C32 (configuration not stated),> 100 µM,–
CCCCc1n(Cc2ccc3ccccc3n2)cc[n+]1Cc1ccc2ccccc2c1,10 µM,2.3
COc1ccc(C#CC2=C(Br)C(=O)OC2)cc1,11.3 µM,3.16
N#CC1=C(N)Oc2c(ccc3cccnc23)C1c1ccccc1 (configuration not stated),> 100 µM,–
